Measured values taken from PubChem BioAssay AID588342 (National Center for Advancing Translational Sciences (NCATS), 2011).
Out of some 360,000 compounds screened, about 25,000 (6.9%) were called active. The inconclusive results got no clear call from the source; some entries with a clear call stand among them for comparison. The call rests on the fitted dose curve; in most records, active means well fitted inhibition curve with a large enough effect; inconclusive means small, poorly fitted or top-dose-only effect; inactive means flat fitted curve, though single readings scatter. Where the call is inconclusive, the potency comes from a doubtful curve fit.

target: Luciferin 4-monooxygenase (Photinus pyralis) (UniProt P08659); test: qHTS profiling assay for firefly luciferase inhibitor/activator using purifed enzyme and Km concentrations of substrates (counterscreen for miR-21 project); conditions: purified FLuc, luminescence inhibition; series mostly up to 57.5 µM; further: nearly all actives have a fitted effect of over 55% in size
UniProt P08659, sequence (P08659 whole entry, looked up): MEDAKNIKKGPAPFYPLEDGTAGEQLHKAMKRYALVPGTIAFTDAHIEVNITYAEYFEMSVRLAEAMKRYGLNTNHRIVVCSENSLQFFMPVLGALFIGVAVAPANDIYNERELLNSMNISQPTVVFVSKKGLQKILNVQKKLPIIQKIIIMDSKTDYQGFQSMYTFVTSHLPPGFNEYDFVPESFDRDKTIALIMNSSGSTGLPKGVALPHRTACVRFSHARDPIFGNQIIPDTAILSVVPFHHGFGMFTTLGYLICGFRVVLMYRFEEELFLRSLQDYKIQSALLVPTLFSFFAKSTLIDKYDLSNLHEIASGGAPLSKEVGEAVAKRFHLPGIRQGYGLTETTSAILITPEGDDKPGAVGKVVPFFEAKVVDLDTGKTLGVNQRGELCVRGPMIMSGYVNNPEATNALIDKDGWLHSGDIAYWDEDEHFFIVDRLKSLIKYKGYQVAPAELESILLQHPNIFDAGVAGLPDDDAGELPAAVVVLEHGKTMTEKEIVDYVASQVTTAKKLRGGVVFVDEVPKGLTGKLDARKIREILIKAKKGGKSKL
Procedure, shortened: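 Purified P. pyralis luciferase, 10 nM final, with Km-level 10 uM D-luciferin and 10 uM ATP in 50 mM Tris acetate pH 7.5, 10 mM Mg acetate, 0.01% Tween-20, 0.05% BSA; 6-point qHTS titration about 60 µM downward; luminescence read.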
Potency means the concentration at half of the fitted maximal effect; tags describe the fitted curve by direction and shape.

SMILES	Potency
CCOc1ccc2oc(C(=O)N3CCN(c4ccccn4)CC3)c(C)c2c1	inconclusive: 26.9 µM [inhibitor, partial curve, poor fit]
COc1ccc(-c2noc(CN(C(=O)c3cc(OC)c(OC)cc3OC)C(C)C)n2)cc1	inactive
COc1cc(C2C(C(=O)Nc3ccccc3)=C(C)Nc3nnnn32)cc(OC)c1OC (stereo unspecified)	inactive
CCOc1ccc2nc(N3CCCC(C(=O)NCc4ccccc4OC)C3)sc2c1 (stereo unspecified)	inconclusive: 4.26 µM [inhibitor, single point]
CC(C)n1cc(CN2CCCC(C(=O)Nc3ccccc3Oc3cccnc3)C2)cn1 (stereo unspecified)	inactive
COc1ccc(CN2C(=O)N(c3ccc(C)cc3)C(=O)C2CC(=O)Nc2ccccc2)cc1OC (stereo unspecified)	inactive
COc1ccccc1/C=C\C(=O)NCC(=O)N/N=C/c1ccc(O)cc1O	inconclusive: 37.9 µM [inhibitor, single point]
Clc1ccc(Br)cc1-c1nc(-c2ccncc2)no1	inconclusive: 8.49 µM [inhibitor, partial curve]
CCCc1cc(C(=O)Nc2c(C)nn(Cc3ccc(Cl)c(Cl)c3)c2C)no1	inconclusive: 30.1 µM [inhibitor, partial curve, poor fit]
CC(C)c1ccc(OCc2cccc(C(=O)N/N=C/c3cccnc3)c2)cc1	active: 0.849 µM
COc1ccc(CC(=O)N(Cc2ccccc2)c2ccc(C)cc2)cc1S(=O)(=O)N1CCOCC1	inconclusive: 23.9 µM [inhibitor, partial curve, poor fit]
CCCOP(=O)(c1ccc(N(C)C)cc1)C(O)c1ccc(N(C)C)cc1 (stereo unspecified)	inconclusive: 16.9 µM [inhibitor, partial curve, poor fit]
Cc1ccnc(SCC(=O)c2cccs2)n1	inconclusive: 26.9 µM [inhibitor, partial curve]
Cc1cccc(OCCN2C(=O)C(=O)c3cc(C)ccc32)c1	active: 12 µM
NS(=O)(=O)c1ccc(NCc2c(F)cccc2Cl)cc1	inactive
CCc1sc(/C=C(/C#N)C(N)=S)cc1[N+](=O)[O-]	inconclusive: 37.9 µM [inhibitor, single point]
O=C(COc1ncnc2sccc12)Nc1ccc2c(c1)OCCO2	inconclusive: 23.9 µM [inhibitor, single point]
COc1cccc(NC(=O)NCCc2ccc(Cl)cc2)c1	inconclusive: 37.9 µM [inhibitor, partial curve, poor fit]
O=C(Nc1ccccc1C(=O)NCCc1ccccc1)c1cnccn1	inactive
CCOc1ccc(-c2cc(C(=O)NCCc3ccc(Cl)cc3)c3ccccc3n2)cc1	inconclusive: 5.36 µM [inhibitor, partial curve]
COc1ccccc1C(=O)NC1=NC(c2ccc(Br)cc2)CC(=O)N1 (stereo unspecified)	active: 4.78 µM
CC1=NN(c2ccc(C)cc2C)C(=O)C1C(c1ccccc1)C1C(=O)N(c2ccc(C)cc2C)N=C1C (stereo unspecified)	inconclusive: 30.1 µM [inhibitor, partial curve, poor fit]

SMILES	Potency
Cc1ccc(C(=O)Nc2ccc3oc(-c4ccncc4)nc3c2)c(Cl)c1	inconclusive: 1.9 µM [inhibitor, partial curve, poor fit]
CCN(CC)C(=O)c1cccc(NC(=O)c2cc(-c3ccccn3)nc3ccccc23)c1	inconclusive: 33.8 µM [inhibitor, partial curve, poor fit]
Cc1cc(C(=O)CSc2nnc(-c3ccccc3F)o2)c(C)n1Cc1cccs1	inconclusive: 21.3 µM [inhibitor, single point]
N#Cc1c(NC(=O)CS(=O)(=O)c2ccc(Cl)cc2)sc2c1CCCCC2	inconclusive: 6.01 µM [inhibitor, full curve]
CCOC(=O)c1c(CN2CCOCC2)n(-c2ccccc2)c2cc(Br)c(O)cc12	inactive
Cc1ccc(NC(=O)c2ccc(S(=O)(=O)N3CCCCC3)cc2)nc1	inconclusive: 23.9 µM [inhibitor, single point]
COc1ccc(-c2ccc(CCC(=O)O)n2CC(=O)Nc2cccc(C(F)(F)F)c2)cc1	inconclusive: 21.3 µM [inhibitor, partial curve, poor fit]
Cc1ccc2nc(N(CCCN(C)C)C(=O)c3cc(-c4cccs4)nc4ccccc34)sc2c1	inconclusive: 23.9 µM [inhibitor, partial curve, poor fit]
Cc1nn(-c2ccccc2)c(OC(=O)C(C)(C)C)c1Sc1ccccc1	inconclusive: 23.9 µM [inhibitor, single point]
O=C(Nc1ccc(Cl)cc1)N1CCCC(Cn2cccc2)C1 (stereo unspecified)	inconclusive: 19 µM [inhibitor, partial curve]
C/C(=N\N=C1\NC(=O)C(CC(=O)Nc2ccc(C)c(Cl)c2)S1)C(C)C (stereo unspecified)	inconclusive: 30.1 µM [inhibitor, partial curve, poor fit]
COC1(OC)N=C(NC(=O)Nc2ccccc2)C2(C#N)C(c3ccccc3)C12C#N (stereo unspecified)	inconclusive: 37.9 µM [inhibitor, partial curve, poor fit]
O=c1oc2ccccc2cc1-c1cn2cc(Cc3ccccc3F)sc2n1	active: 0.338 µM
CCCC(C(=O)NC1CCCC1)N(CC1CCCO1)C(=O)CNS(=O)(=O)c1ccc(F)cc1 (stereo unspecified)	inactive
CCOc1ccc(Cc2noc3c2C(=O)CC(C)(C)C3)cc1OCC	inactive
COC(=O)c1cc(NS(=O)(=O)c2cc(Br)cc3c2N(C(C)=O)CC3)cc(C(=O)OC)c1	inconclusive: 9.53 µM [inhibitor, partial curve, poor fit]
Cc1[nH][nH]c(=O)c1C(c1ccc(-c2ccc(Cl)c(C(=O)O)c2)o1)c1c(C)[nH][nH]c1=O	inconclusive: 30.1 µM [inhibitor, single point]
CCc1nnc(NS(=O)(=O)c2ccc(N3C(=O)c4ccccc4C3=O)cc2)s1	inconclusive: 33.8 µM [inhibitor, partial curve, poor fit]
Cc1ccc(-n2[nH]c(C)c(C=Nc3ccc(S(=O)(=O)Nc4nccs4)cc3)c2=O)cc1	inconclusive: 23.9 µM [inhibitor, single point]
C=CCOc1ccc(C(=O)Nc2ncn[nH]2)cc1	inconclusive: 23.9 µM [inhibitor, partial curve, poor fit]
CCOC(=O)c1c(Cc2ccccc2)c[nH]c1C	inconclusive: 37.9 µM [inhibitor, partial curve, poor fit]
Cc1ccccc1N=C1NC(=O)/C(=C/c2cccn2-c2cccc(C(=O)O)c2)S1	inconclusive: 23.9 µM [inhibitor, single point]

SMILES	Potency
Cc1ccc(C(=O)OCC(=O)N2CCC(C)CC2)cc1S(=O)(=O)N1CCCCC1	active: 16.9 µM
O=C(CC(=O)c1ccccc1)Nc1ccccc1C(F)(F)F	inconclusive: 19 µM [inhibitor, single point]
O=C(NNC(=S)Nc1ccccc1C(F)(F)F)c1ccc(Br)o1	inconclusive: 37.9 µM [inhibitor, partial curve, poor fit]
COc1cc(NC(=S)NCCO)c(OC)cc1Cl	inactive
CCOc1cnn(-c2ccccc2)c(=O)c1Cl	inactive
O=C(COC(=O)c1ncc(Cl)c(Cl)c1Cl)Nc1ccc(Cl)cn1	inactive
CCOc1ccc2nc(NC(=O)CN3CCN(CC)CC3)sc2c1	inactive
CCOC(=O)CSc1nc2ccc(NC(=O)COc3ccccc3C)cc2s1	inconclusive: 37.9 µM [inhibitor, partial curve, poor fit]
Cc1ccc(C(=O)CNc2ccc(C)cc2C)cc1	active: 13.5 µM
O=C(CSc1nc2ccccc2[nH]1)N=Nc1c(O)[nH]c2ccccc12	inconclusive: 15.1 µM [inhibitor, partial curve]
Cc1ccc(/C=N\NC(=O)C2COc3cc4ccccc4cc3O2)o1 (stereo unspecified)	inconclusive: 37.9 µM [inhibitor, single point]
COC(=O)c1ccc(OC(=O)c2ccco2)cc1	inconclusive: 23.9 µM [inhibitor, partial curve]
CN(Cc1ccon1)C(=O)CCc1nnc(Cc2ccc(-c3ccccc3)cc2)o1	inconclusive: 37.9 µM [inhibitor, single point]
CCc1ccc(C2CC(=O)Oc3c2c(=O)n(C)c2ccccc32)cc1 (stereo unspecified)	inconclusive: 10.7 µM [inhibitor, partial curve]
O=C(/C=C/c1cccs1)Nc1ccc([N+](=O)[O-])cc1	inconclusive: 8.49 µM [inhibitor, partial curve]
Cn1c(=O)c2nc(SCC(=O)Nc3ccc(Cl)c(Cl)c3)n(C)c2n(C)c1=O	inactive
Cc1cc(C)cc(NC(=O)Cn2cc(C(=O)c3ccccc3)c(=O)c3ccc(C)nc32)c1	inactive
C=CCc1c(C)nc(SCc2ccccc2)[nH]c1=O	inconclusive: 21.3 µM [inhibitor, single point]
c1ccc(C2CC(c3cccs3)=NN2c2ccccc2)cc1 (stereo unspecified)	inconclusive: 37.9 µM [inhibitor, single point]
CC(C)CN(CC(C)C)S(=O)(=O)c1ccc(C(=O)Nc2sc3c(c2C(N)=O)CCN(C(C)C)C3)cc1	inactive
Cc1cc(-c2csc(N)n2)c(C)n1Cc1ccccc1	inconclusive: 30.1 µM [inhibitor, partial curve, poor fit]
CCOc1ccc(-c2noc(CSc3nnc(Cc4ccccc4)n3-c3ccc(F)cc3)n2)cc1	inconclusive: 19 µM [inhibitor, partial curve, poor fit]
